# Test results as given in PMC4336329 (PLoS ONE, 2015).
# The whole screen tested about 310,000 compounds, of which about 2,200 (0.71%) showed an effect of 50% or more. The effect is printed as a negative number. Some of the results follow.
# Molecular target: human ether-à-go-go-related gene (hERG) potassium channel (human, UniProt Q12809)
# Test: primary screen, population patch clamp on CHO cells stably expressing hERG
# Sequence of human ether-à-go-go-related gene (hERG) potassium channel (Q12809 whole entry, looked up): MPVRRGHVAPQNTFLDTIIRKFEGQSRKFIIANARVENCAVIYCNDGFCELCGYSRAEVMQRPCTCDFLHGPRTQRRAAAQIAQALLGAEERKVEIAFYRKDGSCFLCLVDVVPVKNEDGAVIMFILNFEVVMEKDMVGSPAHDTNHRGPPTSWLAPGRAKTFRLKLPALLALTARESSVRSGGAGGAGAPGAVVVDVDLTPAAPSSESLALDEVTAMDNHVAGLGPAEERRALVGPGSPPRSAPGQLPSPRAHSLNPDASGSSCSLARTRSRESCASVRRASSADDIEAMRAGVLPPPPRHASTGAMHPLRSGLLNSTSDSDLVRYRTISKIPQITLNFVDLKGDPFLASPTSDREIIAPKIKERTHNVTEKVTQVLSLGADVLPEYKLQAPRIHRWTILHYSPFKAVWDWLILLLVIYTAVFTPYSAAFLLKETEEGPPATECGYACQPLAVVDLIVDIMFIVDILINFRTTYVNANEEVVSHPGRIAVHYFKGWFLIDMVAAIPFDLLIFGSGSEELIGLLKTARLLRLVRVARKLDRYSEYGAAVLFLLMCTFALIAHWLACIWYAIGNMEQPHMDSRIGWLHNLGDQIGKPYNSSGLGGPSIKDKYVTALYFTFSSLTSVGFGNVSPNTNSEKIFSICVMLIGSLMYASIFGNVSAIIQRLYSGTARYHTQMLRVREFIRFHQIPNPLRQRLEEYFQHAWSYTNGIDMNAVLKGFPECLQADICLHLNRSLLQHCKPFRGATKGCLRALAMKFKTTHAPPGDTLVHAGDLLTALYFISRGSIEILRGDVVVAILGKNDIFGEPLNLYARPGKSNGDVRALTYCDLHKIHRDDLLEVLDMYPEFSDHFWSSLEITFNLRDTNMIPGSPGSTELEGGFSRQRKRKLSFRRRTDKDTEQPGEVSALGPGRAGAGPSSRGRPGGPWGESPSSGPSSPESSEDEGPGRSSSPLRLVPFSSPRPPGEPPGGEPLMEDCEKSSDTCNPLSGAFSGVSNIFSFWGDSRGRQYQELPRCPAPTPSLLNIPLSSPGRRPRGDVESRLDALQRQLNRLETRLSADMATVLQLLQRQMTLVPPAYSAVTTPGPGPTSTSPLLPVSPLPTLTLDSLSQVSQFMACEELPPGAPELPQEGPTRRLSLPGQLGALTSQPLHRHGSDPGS
row,Structure (SMILES),"hERG current change (%, negative = inhibition) at 1uM [%]"
1,CCC(Oc1ccccc1)C(=O)Nc1nnc(C(F)(F)F)s1 (stereo not drawn),3.14
2,O=C(O)[C@H]1CCC(=O)N1Cc1ccco1,9.4
3,COc1ccccc1CCNC(=O)CNC(=O)Cc1cccc2ccccc12,6.4
4,CC1CCN(c2nc(-c3ccco3)c3c(c2C#N)CC(C)(C)OC3)CC1,8.07
5,CCOCCc1nnc(NC(=O)c2cccs2)s1,12.7
6,Cc1c(C(=O)N2c3ccccc3Sc3ccccc32)cccc1[N+](=O)[O-],7.52
7,O=C(NCCCN1CCOCC1)c1ccc(S(=O)(=O)Nc2ccccc2F)cc1,12.8
8,Cc1[nH]c2ccccc2c1-c1csc(N)n1,17
9,Cc1nnc(SCC(=O)Nc2nsc(-c3ccc(Cl)cc3)n2)s1,-0.254
10,CN(NC(=O)c1ccc(Cl)cc1)c1ncc(C(F)(F)F)cc1Cl,8.74
11,O=C(/C=C/c1ccccc1)NNC(=O)c1ccco1,9.8
12,O=C1c2ccccc2C(=O)N1Cc1cccnc1,15.6
13,COc1ccc(-c2cc(C)no2)cc1S(=O)(=O)Nc1cccc(CN2CCCC2)c1,4.37
14,Brc1cccc(OCCCCN2CCCCC2)c1.O=C(O)C(=O)O,-43.2
15,COc1ccc(NC(=S)NN(C)C(=S)Nc2ccc(OC)cc2)cc1,12.9
16,CCSc1nc2ccccc2n1C(=O)Oc1ccccc1,-1.11
17,Cc1cc(C)c(S(=O)(=O)Nc2cc(SCC(=O)O)c(O)c3ccccc23)cc1C,2.39
18,CNC(=O)CNC(=O)Nc1ccc(Cl)c(Cl)c1,12.9
19,COc1cc2oc3cc(C#Cc4ccc(N)cc4)ccc3c(=O)c2cc1OC,16
20,CSCC[C@H](NC(=O)Nc1ccc(C)cc1)C(=O)O,15.1
21,COc1ccccc1-c1cc(C(=O)Nc2cc(C)nn2-c2ccccc2)no1,8.1
22,COc1ccc(CNC(=O)c2cc3c(=O)[nH]c4ccccc4c3n2C)cc1,15.1
23,O=S(=O)(c1cnc[nH]1)N1CCCCCC1,11.6

row,Structure (SMILES),"hERG current change (%, negative = inhibition) at 1uM [%]"
1,CC/C=C(\NC(C)=O)c1ccccc1,9.71
2,Cc1ccc(C(=O)NNC(=O)c2ccco2)cc1,8.61
3,O=C(Cc1ccccc1)NNC1CC(=O)N(c2ccc(Cl)cc2)C1=O (stereo not drawn),7.52
4,COC(=O)c1sccc1NC(=O)c1c(F)c(F)c(F)c(F)c1F,7.4
5,COc1cc2c(cc1NC(=O)C(C)Sc1ccc(C)cc1)oc1ccccc12 (stereo not drawn),17.2
6,CN(CC(=O)NCCc1ccc(S(N)(=O)=O)cc1)S(=O)(=O)c1cccc2nsnc12,3.75
7,CSc1cccc(NC(=S)N2CCCN(Cc3ccc(F)cc3)C2)c1,-2.18
8,Cc1ccc(C(NC(=O)c2cccc(S(=O)(=O)N3CCN(C)CC3)c2)c2ccccc2)cc1 (stereo not drawn),1.78
9,COc1ccc(Cc2nnc(NC(=O)C3CCCO3)s2)cc1OC (stereo not drawn),13.6
10,O=C(CSc1nnc2c3c4c(sc3ncn12)CCCC4)NCc1ccco1,13.2
11,COc1ccc(S(=O)(=O)N2CCOCC2)cc1NC(=O)c1ccccc1C,15.2
12,CCCCN1C(=O)NC(c2ccc(OC)cc2)C(C(=O)OCc2ccccc2)=C1C (stereo not drawn),6.49
13,Cc1ccc(C(C(=O)NCc2ccccc2)N(Cc2ccco2)C(=O)c2snc(C(N)=O)c2N)o1 (stereo not drawn),8.42
14,COc1ccc(NC(=O)Cc2ccc(C)cc2)cc1S(=O)(=O)N1CCCCC1,7.71
15,Cc1ccc(C(=O)OCC(=O)NC2CCCc3ccccc32)o1 (stereo not drawn),8.97
16,CC(C)(C)C(=O)Nc1ccc(C(=O)NCc2cccnc2)cc1,-7.1
17,COc1ccc(OC)c(C(=O)COC(=O)c2ccccc2O)c1,4.9
18,COCCNC(=O)c1cnn2c(C(F)F)cc(-c3ccc(C)cc3)nc12,2.03
19,CCc1ccc2c(c1)cc(CN(C(=S)Nc1ccccc1C)C1CC1)c1nnnn12,3.24
20,Cc1ccc(S(=O)(=O)c2nc(S(=O)(=O)c3ccc(C)cc3)c(NCc3ccco3)s2)cc1,4.27
21,NS(=O)(=O)c1ccc(CNC(=O)/C=C/c2ccco2)cc1,10.1
22,Cc1ccc2nc(SCC(=O)Nc3ccc4c(c3)CCC4)[nH]c2c1,9.49
23,CCOc1ccc2nc(SCC(=O)NC(=O)NCc3ccco3)[nH]c2c1,-0.64

row,Structure (SMILES),"hERG current change (%, negative = inhibition) at 1uM [%]"
1,C=CCOc1ccc(/C=N/n2nnnc2N)cc1OC,14
2,Cc1ccc(Cn2cc(S(=O)(=O)c3ccc(Cl)cc3)c(=O)c3cc(F)ccc32)cc1,14.5
3,O=C(O)c1cccc(-c2ccc(/C=N/n3cnc4sc5c(c4c3=O)CCCC5)o2)c1,10.5
4,Nc1nc(Cl)cc(NCCc2ccccc2)n1,13.5
5,O=C(NC(=S)Nc1ccccc1N1CCCCC1)c1ccccc1,13.5
6,N#CC1=C(N)Oc2cc3ccccc3cc2C1c1cccnc1 (stereo not drawn),13.6
7,CCOC(=O)c1[nH]c(C)c(C(=O)N(C)C)c1C,8.79
8,CCOC(=O)c1ccccc1NC(=O)c1cn(-c2ccc(OC)cc2)c(=O)c2ccccc12,0.516
9,O=C(N/N=C\c1ccc(Oc2ccccc2)cc1)c1csnn1,-27.9
10,COc1ccc(C/C(C)=N/Nc2nc(C)cc(=O)[nH]2)cc1,13.4
11,N#Cc1ccc(C23CC4(C2)[C@H](CN(Cc2cccnc2)[C@@H]4c2ccccc2)C3c2ccccc2)cc1 (stereo partly drawn),8.25
12,C=CCn1c(SCC(N)=O)nc2nc3c(cc2c1=O)COC(C)(C)C3,7.81
13,CCOC(=O)c1c(C)[nH]c(C(=O)COC(=O)c2cnccn2)c1C,8.48
14,O=C(O)C1CCN(C(=O)OCc2ccccc2)CC1,16.7
15,COc1cccc(CNC(=O)C2CCN(S(=O)(=O)N3CCC(C)CC3)CC2)c1,12
16,Cc1ccc(C(=O)NCC(C)(C)O)cc1,13.3
17,CC(=O)c1c(C)[nH]c(C(=O)OCC(=O)N2CCc3ccccc32)c1C,10.5
18,Cc1ccc(NC(=S)N(C)C)cc1C,2.58
19,CC(=O)c1cccc(NCC(=O)Nc2cc(S(=O)(=O)N3CCCCC3)ccc2C)c1,7.1
20,COc1cccc(/C=C2\SC(=S)N(CCC(=O)N3CCCCC3CCO)C2=O)c1 (stereo not drawn),9.11
21,O=C1NC(NS(=O)(=O)c2ccccc2)(C(F)(F)F)C(=O)N1CCc1ccccc1 (stereo not drawn),15
22,O=C(NC1C2CC3CC(C2)CC1C3)C1CC1 (stereo not drawn),2.6
23,CSc1ccc(/C=C(/NC(=O)c2ccco2)C(=O)NCc2ccco2)cc1,6.83

row,Structure (SMILES),"hERG current change (%, negative = inhibition) at 1uM [%]"
1,CCc1ccc(S(=O)(=O)NCCc2csc(C)n2)s1,19.6
2,Cc1ccc(N2C(=O)CC(Cc3cccc(C)c3)C2=O)cc1 (stereo not drawn),16.7
3,Cn1c(O)c(C=NCCN2CCNCC2)c(=O)[nH]c1=O,19.4
4,COc1ccc(CN2C(=O)C(O)(CC(=O)c3c(C)n[nH]c3C)c3ccccc32)cc1OC (stereo not drawn),13.4
5,COc1cccc2sc(N(CCCN(C)C)C(=O)c3ccc(S(=O)(=O)N4CCCc5ccccc54)cc3)nc12.Cl,-3.09
6,CC(=O)c1c(C)nc2ccc([N+](=O)[O-])cc2c1-c1ccccc1,10.7
7,COc1ccc(N2C(=O)C3CCCN3C2c2ccc(C)cc2)cc1Cl (stereo not drawn),8.9
8,Cn1c(=O)cc(C(=O)N/N=C/c2ccc(Cl)cc2)[nH]c1=O,13.8
9,CC1=NN(C(N)=S)C(=O)C1N=Nc1cccc(C(=O)O)c1 (stereo not drawn),16.7
10,O=C(Cn1nnc2ccccc21)c1cccc([N+](=O)[O-])c1,18.5
11,CCCCCCCC1(C)NC(=O)N(CC(=O)Nc2cc(C)on2)C1=O (stereo not drawn),-11.7
12,COc1cccc2cc(-c3nc4ccccc4o3)c(=O)oc12,12.8
13,COC(=O)c1ccccc1NC(=O)CSc1nc(O)c(-c2ccccc2)c(=O)[nH]1,-5.57
14,CC(C)OCCCNCC(O)c1ccccc1 (stereo not drawn),5.47
15,CCN(CC(=O)Nc1cc(S(=O)(=O)N2CCOCC2)ccc1Cl)Cc1ccccc1,10.7
16,COc1ccc(-c2noc(CNS(=O)(=O)c3ccc(NC(C)=O)cc3)n2)cc1OC,12.4
17,CCNc1c(NC(=O)c2cccs2)c(=O)oc2ccccc12,12.7
18,CCOC(=O)C(C(=O)OCC)C1OC(=O)c2cc3c(cc21)C(=O)OC3C(C(=O)OCC)C(=O)OCC (stereo not drawn),11.9
19,CCCCN(CC)C(=O)c1cc2cc3ccc(OC)cc3nc2o1,-1.08
20,CCC(=O)N(C)C(c1ccccc1Cl)c1nnnn1-c1c(C)cccc1C (stereo not drawn),15.6
21,COC(=O)CCCNC(=O)c1ccc(S(=O)(=O)NCc2ccco2)cc1,10.7
